Test results as given in publication PMC9911399, “Two distinct binding modes provide the RNA-binding protein RbFox with extraordinary sequence specificity”.
Substitutions are numbered along the chain they refer to; changes in the protein carry UniProt numbers. The list shows a part of the results.

B1: ACGGUGA (DNA:RNA)
RNA: GGGAGACCGGAAUUCAGAUUGUCCACGGUGAUUAAAUCCCGUCGUAGCCACCA
DNA 1: CAATCTGAATTCCGGTCTCCC
DNA 2: TGGTGGCTACGACGGGATT
B2: GGGUCAA (DNA:RNA)
RNA: B1 RNA with A25G, C26G, G28U, U29C, G30A
DNA 1: CAATCTGAATTCCGGTCTCCC
DNA 2: TGGTGGCTACGACGGGATT
B3: AUAAGAC (DNA:RNA)
RNA: B1 RNA with C26U, G27A, G28A, U29G, G30A, A31C
DNA 1: CAATCTGAATTCCGGTCTCCC
DNA 2: TGGTGGCTACGACGGGATT
B4: CGUAACC (DNA:RNA)
RNA: GGGAGACCGGAAUUCAGAUUGUCCCGUAACCUUAAAUCCCGUCGUAGCCACCA
DNA 1: CAATCTGAATTCCGGTCTCCC
DNA 2: TGGTGGCTACGACGGGATT
B5: GCCAGCA (DNA:RNA)
RNA: B1 RNA with A25G, G27C, G28A, U29G, G30C
DNA 1: CAATCTGAATTCCGGTCTCCC
DNA 2: TGGTGGCTACGACGGGATT
B6: AGUAACG (DNA:RNA)
RNA: B4 RNA with C25A, C31G
DNA 1: CAATCTGAATTCCGGTCTCCC
DNA 2: TGGTGGCTACGACGGGATT
B7: CGGAACA (DNA:RNA)
RNA: B4 RNA with U27G, C31A
DNA 1: CAATCTGAATTCCGGTCTCCC
DNA 2: TGGTGGCTACGACGGGATT
B8: UCAACAA (DNA:RNA)
RNA: B1 RNA with A25U, G27A, G28A, U29C, G30A
DNA 1: CAATCTGAATTCCGGTCTCCC
DNA 2: TGGTGGCTACGACGGGATT
B9: UUCCAAU (DNA:RNA)
RNA: B4 RNA with C25U, G26U, U27C, A28C, C30A, C31U
DNA 1: CAATCTGAATTCCGGTCTCCC
DNA 2: TGGTGGCTACGACGGGATT
B10: GGGCAAG (DNA:RNA)
RNA: B4 RNA with C25G, U27G, A28C, C30A, C31G
DNA 1: CAATCTGAATTCCGGTCTCCC
DNA 2: TGGTGGCTACGACGGGATT
B11: UCUAUAA (DNA:RNA)
RNA: B1 RNA with A25U, G27U, G28A, G30A
DNA 1: CAATCTGAATTCCGGTCTCCC
DNA 2: TGGTGGCTACGACGGGATT
B12: AAAGGGA (DNA:RNA)
RNA: B1 RNA with C26A, G27A, U29G
DNA 1: CAATCTGAATTCCGGTCTCCC
DNA 2: TGGTGGCTACGACGGGATT
B13: AUUGUUA (DNA:RNA)
RNA: B1 RNA with C26U, G27U, G30U
DNA 1: CAATCTGAATTCCGGTCTCCC
DNA 2: TGGTGGCTACGACGGGATT
B14: GAUGGGC (DNA:RNA)
RNA: B1 RNA with A25G, C26A, G27U, U29G, A31C
DNA 1: CAATCTGAATTCCGGTCTCCC
DNA 2: TGGTGGCTACGACGGGATT
B15: UGUAGAG (DNA:RNA)
RNA: B4 RNA with C25U, A29G, C30A, C31G
DNA 1: CAATCTGAATTCCGGTCTCCC
DNA 2: TGGTGGCTACGACGGGATT
B16: GAGGACU (DNA:RNA)
RNA: B1 RNA with A25G, C26A, U29A, G30C, A31U
DNA 1: CAATCTGAATTCCGGTCTCCC
DNA 2: TGGTGGCTACGACGGGATT
B17: UCACGCU (DNA:RNA)
RNA: B1 RNA with A25U, G27A, G28C, U29G, G30C, A31U
DNA 1: CAATCTGAATTCCGGTCTCCC
DNA 2: TGGTGGCTACGACGGGATT
B18: CAAGCUU (DNA:RNA)
RNA: B1 RNA with A25C, C26A, G27A, U29C, G30U, A31U
DNA 1: CAATCTGAATTCCGGTCTCCC
DNA 2: TGGTGGCTACGACGGGATT
B19: GACCCUG (DNA:RNA)
RNA: GGGAGACCGGAAUUCAGAUUGUCCGACCCUGUUAAAUCCCGUCGUAGCCACCA
DNA 1: CAATCTGAATTCCGGTCTCCC
DNA 2: TGGTGGCTACGACGGGATT
B20: GAGGGGC (DNA:RNA)
RNA: B1 RNA with A25G, C26A, U29G, A31C
DNA 1: CAATCTGAATTCCGGTCTCCC
DNA 2: TGGTGGCTACGACGGGATT

target: T1, RBFOX1 RRM (Homo sapiens, UniProt Q9NWB1 109-208); test: EMSA; HiTS-Eq, 1 nM pool, 10 min; buffer printed only for the single-RNA assays: 10 mM Tris pH 7.5, 150 mM NaCl, 3.4 mM EDTA, 0.001% NP-40, 30 C; conditions: tags: His6 N-terminal (pET28a); label: 5' 32P
T1 sequence: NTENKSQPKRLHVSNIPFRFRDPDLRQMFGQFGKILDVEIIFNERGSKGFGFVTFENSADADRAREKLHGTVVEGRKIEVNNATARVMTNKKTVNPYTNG
How it was run: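 Purified wild-type or mutant RbFox RRM at increasing concentrations was equilibrated with 1 nM of 5′-radiolabelled RNA carrying 7 randomized nucleotides for 10 min in 50 µL. Unbound RNA was separated by 8% native PAGE and sequenced. Relative association constants came from read-count changes of each RNA species compared with the control reaction, normalised to the cognate motif.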

Binder	binding signal
B1	0.0117 KA relative to UGCAUGU
B2	0.00562 KA relative to UGCAUGU
B3	0.00331 KA relative to UGCAUGU
B4	0.003 KA relative to UGCAUGU
B5	0.0138 KA relative to UGCAUGU
B6	0.00714 KA relative to UGCAUGU
B7	0.019 KA relative to UGCAUGU
B8	0.000161 KA relative to UGCAUGU
B9	0.00158 KA relative to UGCAUGU
B10	0.0135 KA relative to UGCAUGU
B11	0.00121 KA relative to UGCAUGU
B12	0.00483 KA relative to UGCAUGU
B13	0.0062 KA relative to UGCAUGU
B14	0.0134 KA relative to UGCAUGU
B15	0.0221 KA relative to UGCAUGU
B16	0.0055 KA relative to UGCAUGU
B17	0.00491 KA relative to UGCAUGU
B18	0.00502 KA relative to UGCAUGU
B19	0.0142 KA relative to UGCAUGU
B20	0.0183 KA relative to UGCAUGU
